The text below walks through data of PubChem BioAssay AID463173 (ICCB-Longwood Screening Facility, Harvard Medical School, 2010).

Structures are written as SMILES. The whole screen tested about 52,000 compounds, of which about 1,700 (3.3%) were called active. Cut-off read from the data, not from the text of the source: active = survival mostly below about 52% (no sharp cut-off); inactive = mostly above about 56%. The list shows a part of the results.

The assay concerns Wild type. As to the kind of experiment: S. aureus survival, RN4220 and DeltatarO strains – OD600, teichoic acid synthesis inhibitors, primary screen (AID 463173). To be noted: S. aureus RN4220 wild type/DeltatarO growth, OD600, 18 h, hits give low values, screened at 18.75 µg/mL (by protocol).
`CCc1ccccc1NC(=O)c1ccc2[nH]c(C)c(C)c2c1`: the survival is inactive: 136%. With `Cc1ccccc1CN1C(=O)C(O)(CC(=O)c2cccc(Br)c2)c2ccccc21` (stereo not given) the figure was active: 10%; with `CCOc1ccccc1C1Nc2ccccc2-c2nnc(SCc3ccccc3)nc2O1` (stereo not given), inactive: 75%. To `Cc1c(C(=O)NCc2ccccc2)oc2c1-c1[nH]ncc1CC2` belongs inactive: 83%.

Regarding `COc1ccc(Nc2cc(C(=O)NCCCN(C)C3CCCCC3)c3ccccc3n2)cc1`, the survival is inactive: 99%. With `CCCN(C(=O)Cn1nc(Cc2ccncc2)c2ccccc2c1=O)c1ccccc1C` the figure was inactive: 94%; with `CCOc1ccc(-c2nnc(SCC(=O)NCCc3ccccc3)nc2-c2ccc(OCC)c(OC)c2)cc1OC`, inactive: 121%. With `Cc1ccc(C)c2[nH]c(=O)c(CN(CCCN3CCCC3=O)S(=O)(=O)c3ccc(F)cc3)cc12` the figure was inactive: 111%. With `COCCCn1c(=N)c(C(=O)NC2CCCC2)cc2c(=O)n3cc(C)ccc3nc21` the figure was inactive: 71%; with `Cc1cc(O)c(CN2CCN(c3ccc(F)cc3)CC2)c2oc(=O)cc(C)c12`, inactive: 79%; with `Cc1cccc(C(=O)Nc2nnc(S(=O)(=O)N3c4ccccc4CC3C)s2)c1` (stereo not given), inactive: 21%. As for `COc1ccc(Br)cc1CNC(=O)c1ccc(-n2c(C)cc3c2CCC(C)C3)cc1` (stereo not given), the survival is inactive: 136%. To `O=C(O)CCc1ccc(-c2ccc(Cl)cc2)n1-c1cccc(C(F)(F)F)c1` belongs inactive: 78%; to `CCOc1ccc(CCNC(=O)c2nn(-c3ccc(OC)cc3)c(=O)c3c2c2ccccc2n3C)cc1OCC`, inactive: 83%; to `Cn1c(CN2CCCCC2)nc2cc(NC(=O)c3ccc(Cl)cc3)ccc21`, inactive: 139%. With `Cc1ccc2[nH]c3c(=O)n(CC(=O)N(C)Cc4ccccc4)ncc3c2c1` the figure was active: -3%; with `O=C(Cc1ccc(F)cc1)NCCc1csc(-c2ccc(C(F)(F)F)cc2)n1`, inactive: 76%; with `CCOC(=O)c1cnc(NCc2ccc(Cl)cc2)c2ccccc12`, inactive: 81%.

For `CCN(CC)C(=O)c1ccccc1NC(=O)c1cccc(S(=O)(=O)N2CCC(C)CC2)c1`, the survival is inactive: 63%.

As for `O=C(CSc1nc2ccccc2s1)N=Nc1c(O)n(CN2CCCC2)c2ccccc12`, the survival is inactive: 117%.

On to `O=C(NC1CCCCC1)/C(=C/c1ccc(Cl)cc1)NC(=O)c1ccccc1`, for which the survival is inactive: 76%. With `Cc1ccc(C(=O)CSc2nnc3ccc4ccccc4n23)cc1` the figure was inactive: 46%; with `N#Cc1cc2c(=O)n3ccccc3nc2n(-c2nnc(SCc3ccccc3)s2)c1=O`, inactive: 91%; with `COc1cccc(CNC(=O)c2ccc(CS(=O)Cc3ccc(Cl)cc3)o2)c1` (stereo not given), inactive: 94%. To `Cc1cccc(N(C)c2nc3ccc(C)cc3n3nnnc23)c1` belongs inactive: 74%.

On to `Cc1nn(C)c(C)c1NC(=O)CSc1nccc(-c2ccc(Cl)cc2)n1`, for which the survival is inactive: 100%.

Turning to `CCOC(=O)C1CCCN(S(=O)(=O)c2cc(-c3cc(C)no3)ccc2C)C1` (stereo not given), the survival was inactive: 71%. With `S=c1nc(C2CC2)[nH]c2ccccc12` the figure was inactive: 94%. To `CCC(=O)N1c2ccc(S(=O)(=O)N3CCN(c4ccccc4Cl)CC3)cc2CC1C` (stereo not given) belongs inactive: 81%.

As for `Cc1ccc(NC(CNS(=O)(=O)c2ccc(Cl)cc2)c2ccccc2)cc1` (stereo not given), the survival is inactive: 86%. To `Cc1ccc(CNC(=O)C2CCN(c3ncnc4c3nc3n4CCCCC3)CC2)cc1` belongs inactive: 85%. With `CCC(C)(C)NC(=O)c1ccc2c(c1)N(CC#N)C(=O)C(C)(C)O2`, the survival was inactive: 116%. With `Cn1nnc2cc(C(=O)N3CCSCC3)ccc21` the figure was inactive: 106%. With `CC(=O)N(Cc1cc2cc(C)ccc2nc1Cl)C1CCCC1`, the survival is inactive: 108%.

For `Cc1cccc(C)c1Nc1c(-c2ccccc2O)nc2ncccn12`, the survival was inactive: 74%. With `Cc1ccccc1CNC(=O)c1ccc2c(c1)N(Cc1ccccc1)CCS2` the figure was inactive: 88%; with `Cc1cnc(C(=O)Nc2ccc(C(=O)N(C)C3CCCCC3)cc2)cn1`, inactive: 106%. With `O=c1oc2ccc3ccccc3c2cc1-c1nnc(Nc2cccc(F)c2)s1` the figure was inactive: 78%. To `O=C(CCCn1c(=O)c2cccn2c2cccnc21)Nc1ccccc1Br` belongs inactive: 88%; to `CCN1CCOC(=O)C1CC(=O)Nc1cc(Cl)ccc1OC` (stereo not given), inactive: 55%; to `Cc1ccc(CNC(=O)Cn2cc(C(=O)c3ccc(Cl)cc3)c(=O)c3ccc(C)nc32)cc1`, inactive: 77%. Consider `CCCCn1c(=O)c2oc3ccccc3c2n(CC(=O)Nc2ccccc2OC)c1=O`, for which the survival was inactive: 113%. With `CCOC(=O)c1c(NC(=O)/C=C/c2ccc(OCC)cc2)sc2c1CCC2` the figure was inactive: 139%. As to `Cc1nn(CC(=O)NCc2ccccc2Br)c(=O)c2cc3occc3n12`, the survival is inactive: 123%. To `Cc1ccc(S(=O)(=O)N2CCCc3cc(NC(=O)c4c(F)cccc4F)ccc32)cc1` belongs inactive: 75%; to `CCCCNC(=O)[C@@H](c1ccccc1)N1Cc2ccccc2C1=O`, inactive: 90%; to `CCc1ccc(C2=C(C)C(N3CCC(C(=O)NCc4ccc(C)o4)CC3)=NS2(=O)=O)cc1`, inactive: 63%. To `O=C1/C(=C/c2ccccc2O)CC/C1=C\c1ccccc1O` belongs inactive: 71%. With `CNc1oc(/C=C/c2cc(OC)c(OC)c(OC)c2)nc1C#N` the figure was inactive: 92%. On to `Cc1cccc(OCCCCn2c(C3CC(=O)N(c4ccc(C)cc4C)C3)nc3ccccc32)c1` (stereo not given), for which the survival was inactive: 18%. With `Cc1ccc(Cl)cc1-n1ncc2c(N3CCC(C(N)=O)CC3)ncnc21` the figure was inactive: 85%; with `O=C(CCn1c(=O)c2cccn2c2cccnc21)N1CCN(c2ccc(Cl)cc2)CC1`, inactive: 69%. In the case of `CCOc1ccccc1NC(=O)CSc1nccn1Cc1ccc(F)cc1`, the survival is inactive: 84%.

As to `O=C(OCC1CCCO1)c1ccc2c(c1)N(Cc1ccccc1F)C(=O)c1ccccc1S2(=O)=O` (stereo not given), the survival was inactive: 68%. To `Cc1cccc(CNC(=O)c2cnc3sc(N4CCOCC4)nn3c2=O)c1` belongs inactive: 119%.

Regarding `Cc1ccccc1C(=O)Nc1ccc(C(=O)OCc2cc(=O)n3c4c(sc3n2)CCCC4)cc1`, the survival is inactive: 128%. On to `Cc1ccc(-n2c(=O)c3ccc(C(=O)NCc4ccccc4Cl)cc3n(CC(N)=O)c2=O)cc1`, for which the survival is inactive: 90%. With `CCOc1nc(Nc2ccc(OC)cc2)nc(N2CCOCC2)n1` the figure was inactive: 109%. With `COc1ccc(NC(=O)C2CCN(C(=O)c3sc4nc[nH]c(=O)c4c3C)CC2)cc1Cl` the figure was inactive: 85%. In the case of `CN(CC(=O)Nc1ccc(Br)cc1)S(=O)(=O)c1cccc2nsnc12`, the survival was inactive: 66%. With `CCC(c1nnnn1C(C)(C)CC)N1CCN(c2ccccc2)CC1` (stereo not given) the figure was inactive: 105%; with `O=C(NC1CCCC1)C(c1ccccc1)N(Cc1ccccc1F)C(=O)c1ccco1` (stereo not given), inactive: 118%; with `Cc1cc2oc(C(=O)N(Cc3ccc(N(C)C)cc3)CC3CCCO3)c(C)c2cc1Cl` (stereo not given), inactive: 96%. In the case of `CN1C(=O)Cc2cc(S(=O)(=O)CCC(=O)N3CCN(c4ccc(Cl)cc4)CC3)ccc21`, the survival is inactive: 93%. To `COc1ccccc1NC(=O)CSc1nc2c(oc3ccccc32)c(=O)n1-c1ccccc1F` belongs inactive: 84%; to `CCOC(=O)C1CCN(c2nc3ccccc3nc2Cl)CC1`, active: -26%; to `COc1ccc(NC(=O)c2oc3ccccc3c2NC(=O)c2cc(C)cc(C)c2)c(OC)c1`, inactive: 79%. To `O=C(CN1C(=O)c2cccc3cccc1c23)Nc1cccc(F)c1` belongs inactive: 71%; to `CC(=O)Nc1cccc(NC(=O)CSc2nccn2C2CCCC2)c1`, inactive: 83%. For `Cc1cc(C)c(NC(=O)C(=O)NCC(c2cccnc2)N2CCN(c3ccccc3F)CC2)c(C)c1` (stereo not given), the survival was inactive: 90%.

Consider `CCc1cccc(NC(=O)c2cc3c(s2)-c2ccccc2OC3)c1`, for which the survival is inactive: 86%. To `Cc1ccc(N(C(=O)c2ccco2)C(C(=O)NC2CCCC2)c2ccc(N(C)C)cc2)c(C)c1` (stereo not given) belongs inactive: 115%; to `CC1CCCN(CNC(=O)c2ccccc2)C1` (stereo not given), inactive: 105%; to `CN(Cc1ccccc1)c1ccc(-c2nc(-c3ccccc3)no2)cc1[N+](=O)[O-]`, inactive: 103%.

On to `C=Cc1ccc(Cn2c(C)c(CNCc3ccc(SC)cc3)c(C(=O)O)c2C)cc1`, for which the survival was inactive: 83%. With `Cc1ccccc1NC(=O)CSC1=Nc2ccccc2C2=NC(Cc3ccccc3)C(=O)N12` (stereo not given) the figure was inactive: 77%; with `Cc1ccc(OCc2nc(C#N)c(NCCc3ccccc3)o2)cc1`, active: -1%; with `COC(=O)c1ccc2c(=O)n3nc(Nc4cc(OC)ccc4OC)sc3nc2c1`, inactive: 99%. To `Cc1ccc2[nH]c(=O)c3cc(C(=O)N(CCCOC(C)C)Cc4ccco4)sc3c2c1` belongs inactive: 71%; to `COc1ccc(Cl)cc1NC(=O)CSc1nnc2[nH]c(=O)cc(-c3ccccc3)n12`, inactive: 58%; to `CCC(Sc1ncc(S(=O)(=O)c2ccc(Cl)cc2)c(=O)[nH]1)C(=O)Nc1ccc(OC)cc1` (stereo not given), inactive: 96%.

Consider `O=C1CN(C(=O)COc2ccccc2)C(c2ccc(F)cc2)c2cc(Br)ccc2N1` (stereo not given), for which the survival is inactive: 62%. To `COC(=O)c1cc2sc(Cl)cc2n1CC(=O)Nc1cc(OC)cc(OC)c1` belongs inactive: 86%; to `CCN=C1S/C(=C\c2cn(CC(=O)NCCOC)c3ccccc23)C(=O)N1CC`, inactive: 95%; to `COc1ccc(OCC(=O)Nc2ccc(Cl)c(-c3nc4ncccc4o3)c2)cc1`, inactive: 140%.

In the case of `Cc1ccc(NC(=O)CCCn2c(=O)c3cccn3c3ccccc32)cc1Cl`, the survival is inactive: 91%. To `CCCc1nn2c(=O)cc(COC(=O)C3CCCCC3)nc2s1` belongs inactive: 72%; to `COc1ccc(-c2nn(-c3ccc(F)cc3)c3c2cnc2ccc(F)cc23)cc1OC`, inactive: 79%. With `O=C(NCc1nc2ccccc2n1Cc1ccccc1Cl)c1ccccc1` the figure was inactive: 90%; with `COC(=O)c1ccccc1NC(=O)c1oc2ccc3c(c2c1C)C(=O)CC(C)(C)O3`, inactive: 91%.
